# The other results are listed elsewhere or left out. For part of these data: At the low end of the ranking the order means little. For part of these data: The protein was read in a cell extract, so binding may be indirect.
# Legend:
# Settings in all cases: 20 mM HEPES pH 7.9, 100 mM NaCl, 1 mM DTT, 0.2 mg/mL BSA, 0.02% Triton X-100, 2% milk, 0.4 mg/mL salmon testes DNA; 1 h; temperature not stated; high values mean tight binding; double strand, one strand shown; sequences stand for … in GCCTAGCAC…GTGCTAGGTCTTGATTCGCTTGACGCTGCTG
# PU.1 (IVT) = PU.1 (IVT) (UniProt P17947); experiment: protein-binding microarray (PBM)
# [1] = target: T1, FLI1 (endogenous, THP-1 nuclear extract) (UniProt Q01543); experiment: nuclear extract protein-binding microarray (nextPBM)
# T1 sequence: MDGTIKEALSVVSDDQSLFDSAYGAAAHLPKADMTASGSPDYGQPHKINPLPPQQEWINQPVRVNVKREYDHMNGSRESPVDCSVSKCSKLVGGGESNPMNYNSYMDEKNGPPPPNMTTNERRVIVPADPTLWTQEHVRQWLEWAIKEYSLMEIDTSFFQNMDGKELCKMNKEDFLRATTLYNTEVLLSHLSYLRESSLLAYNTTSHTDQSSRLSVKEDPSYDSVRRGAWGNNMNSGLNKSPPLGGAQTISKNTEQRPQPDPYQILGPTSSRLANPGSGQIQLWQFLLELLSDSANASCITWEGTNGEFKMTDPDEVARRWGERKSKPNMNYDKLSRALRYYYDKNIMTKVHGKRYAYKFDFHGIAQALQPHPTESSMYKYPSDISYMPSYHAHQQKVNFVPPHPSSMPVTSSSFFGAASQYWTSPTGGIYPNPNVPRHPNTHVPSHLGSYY
# [2] = system: PU.1 (endogenous, THP-1 nuclear extract) + IRF8 (endogenous, THP-1 nuclear extract); experiment: as above
# [3] = target: PU.1 (endogenous, THP-1 nuclear extract) (UniProt P17947); experiment: as above
Sequence,binding signal (PU.1 (IVT)),binding signal [1],binding signal [2],binding signal [3]
GGCTGGAGGAAGTGAAACTG,3.11 z-score,3.22 z-score,53.2 z-score,
AGAAAAGAGAAGTGAAACTC,3.38 z-score,2.05 z-score,57.2 z-score,
GATAAGAGGAACTGAAACCT,4.64 z-score,2.61 z-score,33.6 z-score,
TCTCTGAGGAAGTGAAACTC,2.86 z-score,2.75 z-score,46.9 z-score,
AAAAAAGGGAAATGAAACTA,4.72 z-score,3.09 z-score,53.9 z-score,
AAAAAAAGGAAATGAATGTA,3.56 z-score,2.3 z-score,0.263 z-score,
AAAAAGAAGAAGTGAAACTA,4.43 z-score,2.8 z-score,70.6 z-score,
CCTGAGAGGAAGTGAAACTA,3.87 z-score,3.72 z-score,76.8 z-score,
CCCAGAGGGAAGTGAAACCA,2.42 z-score,2.56 z-score,43.4 z-score,
TTAATCAGGAACTGAAACTT,2.27 z-score,1.51 z-score,18.6 z-score,
AAAAAGAGGAACTGAAACTT,7.7 z-score,3.27 z-score,72.4 z-score,
TAAAGGAGGAACTGAACCCA,3.5 z-score,0.973 z-score,0.588 z-score,
TGAAACCGGAAGTGAAACCA,5.71 z-score,8.03 z-score,71.9 z-score,
CTGCTAGGGAAGTGAAAGCA,2.85 z-score,1.26 z-score,7.83 z-score,
GAAAAGAGGAAGTGAGATGT,8.73 z-score,4.31 z-score,,7.38 z-score
TCTTTGGGGAACTGAAACCA,2.23 z-score,1.37 z-score,26.9 z-score,
TGAAACAGGAAGTAAAACCA,7.06 z-score,4.95 z-score,4.36 z-score,
CAAAAAGGGAAGTGAATGCT,6.92 z-score,3.03 z-score,,6.73 z-score
TGGCAGAGCAAGTGAAACTA,-0.639 z-score,-0.56 z-score,25.9 z-score,
TAAAAGAGGAACTGAAACCA,6.72 z-score,3.57 z-score,70.4 z-score,
CAAAATGGGAAGTGAAACTA,5.99 z-score,3.1 z-score,75 z-score,
AAAATAAGGAACTGGCTAGA,4.36 z-score,1.35 z-score,,4.59 z-score
GATAAGAGGAACTGAGAGCT,3.92 z-score,1.22 z-score,0.808 z-score,
GAAAAGAGGAAGTTGGACAT,8.75 z-score,4.59 z-score,,7.27 z-score
CTGGCAGGGAACTGAAACTA,0.814 z-score,0.227 z-score,21.4 z-score,

Sequence,binding signal (PU.1 (IVT)),binding signal [1],binding signal [2],binding signal [3]
TAAATGAGGAAGTCCTAGTG,7.77 z-score,3.69 z-score,,7.2 z-score
TGGCAGAGGAAGTGAAACTG,3.48 z-score,3.42 z-score,55.5 z-score,
CCCAAGAGGAAGTGGGTGGG,4.91 z-score,3.3 z-score,,5.8 z-score
AAAAAACGGAAATGAAAGTA,3.75 z-score,3.79 z-score,22.1 z-score,
TAAAGGAGGAACTGAAACGA,3.14 z-score,1.07 z-score,0.769 z-score,
TGGAAGAGGAAGTTGGTTTT,7.15 z-score,3.62 z-score,,6.75 z-score
TAAAGGAGGAACTGAATCCA,3.67 z-score,0.857 z-score,1.08 z-score,
TGACACAGGAAGTGAAACCA,2.45 z-score,4.96 z-score,51.4 z-score,
CTGGCAGGGAACTGAAATTC,0.933 z-score,-0.392 z-score,-0.476 z-score,
GGTAGAGAGAAGTGAAAGTG,1.05 z-score,0.379 z-score,18.4 z-score,
AAGAAGGGGAAGTGACTTGC,6.45 z-score,3.22 z-score,,6.5 z-score
CAATAGGGGAAGTGGGTTGA,5.85 z-score,2.38 z-score,,6.32 z-score
AAATTAGGGAAGTGGTGAAT,6.62 z-score,2.83 z-score,,6.58 z-score
GAGAAGAGGAAGTTCCTCCG,6.82 z-score,3.61 z-score,,6.73 z-score
GAAGAAGGGAAGTGAAAGAG,3.12 z-score,1.9 z-score,2.41 z-score,
TGGGAGAGGAAGTGAAATCA,4.23 z-score,2.96 z-score,,5.18 z-score
CGAAAGGGGCAGTGCTAAAC,-0.257 z-score,-0.0247 z-score,,-0.43 z-score
CTGCCAGGCAAGTGAAAGCA,-0.274 z-score,-0.675 z-score,2.04 z-score,
GTTTTGAGGAACTGAAACTT,4.72 z-score,3.1 z-score,41.2 z-score,
CTGGCAGGGAACTACTGTGC,1.25 z-score,-0.133 z-score,,0.998 z-score
GAGAAGGGGAAATGAAACTC,2.8 z-score,2.4 z-score,22.1 z-score,
CTGCCAGGGAAGTGAAAGAA,1.59 z-score,0.878 z-score,2.05 z-score,
GATAAGGGGAAGTCCTCTGT,5.04 z-score,2.32 z-score,,5.73 z-score
GAAAAGGGGAAGTGTGGACA,7.67 z-score,3.38 z-score,,7.1 z-score
GGTGCTAGGAACTGAAACTA,0.357 z-score,0.312 z-score,24.5 z-score,

Sequence,binding signal (PU.1 (IVT)),binding signal [1],binding signal [2],binding signal [3]
GATAAGAGGAAGTCCACTGT,5.86 z-score,2.58 z-score,,6.19 z-score
TGAAAGAGGAAATGCAACCA,4.2 z-score,2.74 z-score,,4.23 z-score
CAAATGGGGAAATGAAACTC,4.01 z-score,2.37 z-score,29.6 z-score,
TGAAACAGGAACTGAAACCA,4.03 z-score,3.36 z-score,61.4 z-score,
AAAAAGAGGAACTGAATGTC,7.27 z-score,2.9 z-score,,7.14 z-score
TAAGGGAGGAAGTGTTAGGA,3.19 z-score,2.6 z-score,,2.87 z-score
AAAATGAGGAAGTCAACAGC,7.67 z-score,3.1 z-score,,7.31 z-score
CAAATGAGGAACTGAAGCGG,5.81 z-score,1.53 z-score,,6.28 z-score
GGAAAAGGGAAGTGGAATCA,6.56 z-score,2.64 z-score,,6.52 z-score
CAAAAAAGGAACTGGCTAGA,3.89 z-score,1.04 z-score,,2.93 z-score
AGAAAGAGGAACTGGAAATG,6.43 z-score,3.57 z-score,,6.68 z-score
AGAAAGAGGAAGTCATATGG,7.97 z-score,4.18 z-score,,7.33 z-score
GTGGAGGGGAAGTGGCCTCT,3.63 z-score,2.32 z-score,,3.81 z-score
AGCATGAGGAAGTGGGACCT,4.6 z-score,2.37 z-score,,5.25 z-score
CAAATGAGGAAATGGGCTGT,4.11 z-score,2.19 z-score,,4.57 z-score
CAATTAAGGAAGTGCTTGAG,5.32 z-score,2.58 z-score,,5.82 z-score
AGAGGGAGGAAGTGACAGTA,3.9 z-score,2.71 z-score,,3.73 z-score
AGAGAGAGGAAGTGCCACAC,3.91 z-score,2.35 z-score,,4.65 z-score
TTTGGGAGGAAGTGGGCACT,3.32 z-score,2.73 z-score,,3.12 z-score
AGAAAGAGGAAGTGGAAGAG,8.16 z-score,4.3 z-score,,7.16 z-score
AGAGAGAGGAAGTGAACTCC,4.57 z-score,2.8 z-score,,5.03 z-score
AGATACAGGAAGTGAGAGTT,4.56 z-score,4.53 z-score,,5.23 z-score
GGAAAAGGGAAGTGAGGTAC,5.93 z-score,2.71 z-score,,6.33 z-score
AAATAAAGGAACTGGCTAGA,2.69 z-score,0.867 z-score,,2.78 z-score
AGGAAGGGGAAGTTACGAGT,6.12 z-score,3.23 z-score,,6.42 z-score

Sequence,binding signal (PU.1 (IVT)),binding signal [1],binding signal [2],binding signal [3]
GAAAAGGGGAAGAGGGAACT,5.63 z-score,1.92 z-score,,5.77 z-score
CAAGAAAGGAAGTGATGTGA,2.64 z-score,2.54 z-score,,2.42 z-score
CGAAAGGTGAAGTGCTAAAC,0.794 z-score,0.421 z-score,,0.887 z-score
TAAAGAGGGAAGTGAGGACA,3.98 z-score,1.5 z-score,,4.53 z-score
GATTAGAGGAAGTCCTCTGT,5.25 z-score,2.46 z-score,,5.36 z-score
CAGAAAGGGAAGTGGTGGGC,4.1 z-score,2.11 z-score,,4.85 z-score
TAGGAGAGGAAGTGAAAAAC,4.04 z-score,3 z-score,,4.39 z-score
AAAAACAGGAAGTCCCATAG,7.88 z-score,4.69 z-score,,7.1 z-score
GAAAACGGGAAGTCCCATAG,6.77 z-score,3.56 z-score,,7.03 z-score
CAAATGAGGAACTGATGAGG,5.61 z-score,1.89 z-score,,6.48 z-score
GGAAAAGGGAAGTGCTCTGA,6.96 z-score,3.24 z-score,,6.82 z-score
GAAAACCGGAAGTCCCATAG,6.38 z-score,6.71 z-score,,6.75 z-score
AAAAAGAGGAACTGATGTTT,7.97 z-score,3.45 z-score,,7.63 z-score
CAAATTAGGAAGTGCAGAAG,4.02 z-score,2.04 z-score,,3.91 z-score
AGAAAAAGGAAGTGACACAG,6.18 z-score,2.92 z-score,,6.14 z-score
AGGGAGAGGAAGTAGCATTA,4.73 z-score,2.58 z-score,,4.41 z-score
TATAAGAGGAAGTCCTCTGT,5.4 z-score,3 z-score,,6.27 z-score
AAGAAGAGGAAGTGATGTTC,7.01 z-score,3.76 z-score,,6.77 z-score
AGGAGAAGGAAGTGGGAAGA,3.01 z-score,1.91 z-score,,2.88 z-score
GAAAGAGGGAAGTGGGCATA,4.48 z-score,1.92 z-score,,5.03 z-score
AGAAAGAGGAAGCCGAGAGC,4.68 z-score,2.3 z-score,,5.77 z-score
CCACAGAGGAAGTGGCTGAG,3.06 z-score,2.56 z-score,,3.46 z-score
AAATTGGGGAAGTCTTCTTA,5.74 z-score,1.92 z-score,,5.82 z-score
AAAAACAGGAACTGGCTAGA,6.13 z-score,2.89 z-score,,6.57 z-score

# From PMC6451091
